Laboratory results as given in the supplement of paper PMC3334620.
Over roughly 33,000 sequences, “E-score (-0.5 to 0.5)” has its median near -0.032; the highest 2% begin near 0.36. The list shows a part of the results.

Each sequence was assayed against T1, Sko1 (UniProt Q02100) (assay: PBM E-score (8-mer binding enrichment) (E-score (-0.5 to 0.5)); higher = stronger / more preferred TF binding; most listed sequences are background and not binding sites). Conditions: protein concentration: 200 nM; construct: GST-full length.
T1 sequence: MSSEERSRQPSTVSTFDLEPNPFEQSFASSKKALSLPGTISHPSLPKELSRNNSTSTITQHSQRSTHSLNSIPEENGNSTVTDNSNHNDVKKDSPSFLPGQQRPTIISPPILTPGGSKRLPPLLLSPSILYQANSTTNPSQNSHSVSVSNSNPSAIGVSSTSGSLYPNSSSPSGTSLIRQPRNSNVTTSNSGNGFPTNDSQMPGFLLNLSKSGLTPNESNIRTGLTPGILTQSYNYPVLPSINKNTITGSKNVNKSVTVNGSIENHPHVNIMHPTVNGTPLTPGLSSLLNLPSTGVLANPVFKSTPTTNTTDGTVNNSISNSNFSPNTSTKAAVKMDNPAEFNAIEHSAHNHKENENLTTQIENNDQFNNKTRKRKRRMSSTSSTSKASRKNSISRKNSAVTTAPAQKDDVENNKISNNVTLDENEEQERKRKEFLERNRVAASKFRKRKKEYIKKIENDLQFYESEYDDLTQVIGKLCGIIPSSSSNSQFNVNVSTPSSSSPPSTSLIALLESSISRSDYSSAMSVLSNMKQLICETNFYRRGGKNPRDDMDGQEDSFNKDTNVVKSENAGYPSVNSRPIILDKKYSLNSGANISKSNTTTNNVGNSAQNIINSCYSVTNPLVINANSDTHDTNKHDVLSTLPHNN
Procedure, shortened: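 Universal all-10-mer Agilent arrays, double-stranded by primer extension on fresh or once-stripped slides, were probed with about 100-200 nM GST-tagged yeast transcription factors made by PURExpress. Fluorescent anti-GST detected bound protein, and masliner normalised the scans. E-scores from the Universal PBM Analysis Suite were given to each ungapped eight-base word pooled with its reverse complement.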

Row | Sequence | PBM E-score
1 | CAGTTCAA | 0.0285
2 | AACCAAAA | -0.00733
3 | ATTTCTAG | 0.139
4 | ACCCAGGA | -0.154
5 | CCCACATA | -0.0459
6 | CCAGCACA | -0.11
7 | CGCTCCGC | -0.289
8 | TAGGCTAA | -0.0649
9 | GTAGTGAA | 0.2
10 | CACGCGAA | 0.202
11 | AATCTGCA | -0.034
12 | CACAAGTG | -0.0741
13 | ATGATCGG | -0.117
14 | ACGGTTAA | 0.0279
15 | GTGTATGA | 0.224
16 | ATCCTTTA | -0.00164
17 | ATTTATGA | 0.114
18 | AGAGGTAT | 0.0913
19 | CGTTTGAC | 0.0281
20 | AAATTATC | 0.295
21 | GACGTAAC | 0.467
22 | GTGTAGGA | 0.057
23 | AGATTGAC | 0.17
24 | GAAGGATA | 0.0157
25 | AGCAGAAG | -0.127

Row | Sequence | PBM E-score
26 | ACAGGCGC | -0.225
27 | TCGTATCA | 0.241
28 | GAGCGCAA | -0.257
29 | GCGGGTTA | -0.116
30 | CCGCGAGA | -0.214
31 | CGAGTCAC | -0.108
32 | ATCTAGAT | -0.115
33 | AGGTTTGG | -0.0203
34 | ACAAGTCC | -0.262
35 | CAGTGCCA | -0.302
36 | CTCTTAGC | -0.0935
37 | ATCAGTCA | 0.119
38 | ATGAACTC | -0.00107
39 | GAATAACA | 0.181
40 | GACCACTA | 0.0499
41 | AGGAGAAA | -0.2
42 | CTCTATGA | 0.123
43 | AAATTGCG | 0.261
44 | AATAGACA | -0.0972
45 | GTGTACAA | 0.237
46 | GGCTTTAC | 0.0175
47 | ACCGGAGT | -0.224
48 | ACGCTCCC | -0.115
49 | AAGCCATA | 0.0359
50 | TCTTTTCA | 0.058

Row | Sequence | PBM E-score
51 | GAACGGTC | -0.323
52 | AATATATC | 0.213
53 | ATTACCAC | 0.148
54 | AGGAAAAT | 0.0723
55 | AACTGACA | 0.183
56 | GAAGCTTA | -0.0146
57 | CTATGTAC | 0.0843
58 | CGGCACCA | -0.14
59 | GAGACGGC | -0.116
60 | GATTAAGA | 0.138
61 | GGATCAGA | -0.228
62 | AATACCAA | 0.112
63 | AACTAATC | 0.121
64 | AACAAGAG | -0.0807
65 | CATGCCAC | -0.0723
66 | AAAATTAA | 0.103
67 | CTTTCACA | 0.101
68 | GCGGCCTA | -0.36
69 | CTACTCAG | -0.28
70 | TACGTGAA | 0.425
71 | CTAAGGGA | -0.0567
72 | AGCGGTCC | -0.19
73 | AATGCCTG | -0.199
74 | ATAAGTTC | -0.0277
75 | CCCGACGG | -0.0365

Row | Sequence | PBM E-score
76 | TATCGCCA | 0.0834
77 | CATCACAA | 0.193
78 | ACAAGTCT | -0.158
79 | TATCGACA | -0.0887
80 | AGACATAT | 0.266
81 | CACTCGTC | 0.204
82 | GAACTACA | -0.00635
83 | GTGATCCA | -0.14
84 | AAAGCCGG | -0.0574
85 | CGACATCA | 0.355
86 | AGCGGCGC | -0.308
87 | AGATAGTA | 0.0975
88 | GGGAGCCA | -0.292
89 | GCCCTTAA | -0.0166
90 | GAAGGGTC | -0.123
91 | CGGGCAAC | -0.234
92 | GTACCACA | 0.188
93 | CATAATAG | 0.116
94 | CGACCCGC | -0.141
95 | CCATATCA | 0.135
96 | AGCTTCAT | -0.0974
97 | ACGCCTGG | 0.0602
98 | GTTTTTTA | 0.145
99 | GCTTCTCA | -0.269
100 | CCGGTAGG | -0.244

Row | Sequence | PBM E-score
101 | AGTCTTTC | -0.185
102 | AACTACTC | -0.0155
103 | CCTCGGGA | -0.225
104 | CACTCGGC | -0.243
105 | AACTTTAC | 0.171
106 | ATGCACCA | 0.0408
107 | AAGCGAAT | 0.145
108 | GGATACCC | -0.197
109 | CGCGTCCA | 0.115
110 | CGCCTTTC | -0.178
111 | ATAAATGA | 0.29
112 | TAATTGAA | 0.141
113 | AATCCCAT | -0.0408
114 | CGAGATCG | -0.116
115 | GATCCCGC | -0.191
116 | AGACGAAA | 0.199
117 | CCAGCGCC | -0.236
118 | CCGAGTCC | -0.175
119 | AAGATGCA | 0.132
120 | GGTAGTAA | -0.0858
121 | AAGGTCGA | -0.0566
122 | GGTCGAAC | -0.0711
123 | AGATTGCG | 0.188
124 | GTATCTCA | 0.243
125 | GCGCGCTA | 0.0617

Row | Sequence | PBM E-score
126 | CACCGTCA | 0.233
127 | CTGGGAAA | -0.0767
128 | AGTCATAA | 0.0121
129 | CAGAGCTG | -0.238
130 | AATCAGAC | 0.115
131 | AGATGACA | 0.256
132 | TCATCTAA | 0.273
133 | GGAGAAAA | -0.0864
134 | TATCCGGA | -0.15
135 | CCACAACG | 0.103
136 | CATCCACG | 0.144
137 | CAATCGTG | -0.029
138 | CCGGGGCG | -0.302
139 | GCCATGCA | -0.00453
140 | ATTCTTTA | 0.161
141 | GCCGTAAA | 0.107
142 | GTCTAGTA | 0.168
143 | ATGGCTGC | -0.148
144 | CCTAATAC | 0.192
145 | ACGGAACG | 0.129
146 | ACTAGTTA | 0.0747
147 | TCAGAAGA | -0.00031
148 | CTTATAAA | 0.129
149 | CGCAAACA | 0.221
150 | CCCCTTGC | -0.309

Row | Sequence | PBM E-score
151 | CAGTGGCC | -0.122
152 | CAAATAGC | 0.178
153 | CTCCTGTA | -0.117
154 | ACGACCGC | -0.194
155 | CTTACTAA | 0.089
156 | GATGAGAC | -0.00939
157 | CGGGTCAG | -0.161
158 | CGCGAAAG | 0.0268
159 | CTGCCTTC | -0.258
160 | GCTCACCC | -0.158
161 | AAGGCCAA | -0.187
162 | AACATCAT | 0.349
163 | AAGCCCAT | -0.0876
164 | AGACCTAT | 0.105
165 | CCTATTGA | 0.0576
166 | CATCCAGC | -0.0664
167 | CCATGGCC | -0.365
168 | AGGCGTCC | -0.26
169 | GGCGGAAC | -0.315
170 | GAGCTAGA | -0.11
171 | AACAAAAG | 0.105
172 | GACTCTTA | 0.0156
